Reference: the supplement of paper PMC10126150
Values marked as one replicate rest on one cluster of the flow cell; about a third of the high ones do not repeat.

Tested on: ATP
Assay: switch fluorescence ratio, 500 uM ATP over buffer (Cy3 cluster intensity, sum of 5 cycles each) (fold (ratio)); higher = stronger signal-on switching upon ATP binding; sequences stand for … in TCGTCGGCAGCGTCAGATGTGTATAAGAGACAGTTTTTTTTTTTTTTTTTTTTTTTTT…TC
Conditions: aptamer strand: ATP DNA aptamer (quencher-CACCTGGGGGAGTATTGCGGAGGAAGG + anchor), 100 nM annealed; ATP concentration: 500 uM; one replicate
Method in brief: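 The quencher-labelled ATP aptamer, at 100 nM, was annealed to Cy3-labelled switching-strand clusters on a modified Illumina MiSeq flow-cell. The clusters were imaged in selection buffer, then after 15 min with 500 uM ATP at 22 °C, and this buffer/ATP cycle ran five times with NaOH stripping and re-annealing between runs. Per-cluster fluorescence ratios, summed target-cycle over summed buffer-cycle Cy3 intensity, were averaged per switch-domain sequence. Clusters outside 100-1000 RFU were excluded.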
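Also: ATP exposure 15 min at 22 °C before imaging.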

Sequence | switch fluorescence ratio
TATCAACAGG | 1.01
AGGATGAACG | 0.993
CAGTAGTGCC | 0.99
GTGCCCACGG | 1.05
TTTCTCTGTA | 0.995
CATTTACTGC | 1.05
ACGATCACGT | 1.12
ACTAAGGTAC | 1.12
TATTGTGTCA | 0.962
ACCTCTGAAG | 1.28
GAAATATGGA | 0.994
TGCCACATCG | 1.02
GTTCTTCCAA | 1.01
AGAGAGGGAG | 1.01
TCGGCGAGCG | 0.99
TCAGGCTGTG | 0.954
TTGGTGCAAT | 1.34
GTGTCTAGGC | 1.01
CGCTCATGGT | 1.03
CACTACCCGT | 1.13
ACATGATTAG | 1.01
GAGACCTATG | 0.976
CACAACGCTG | 1.01
TTGGCAGGTG | 3.04
GTAGCTCTGA | 1.02
TACTTTTGTA | 0.964

Sequence | switch fluorescence ratio
GCATTCAAAT | 1
GAGTCACGCG | 1.03
CCAGACAGCT | 1.01
CCGTAGTAAT | 4.28
GCAAACGGGA | 1.1
GCGTGCTGTG | 1.01
TCGCATAG | 2.63
GGATGGACTT | 1.03
TGGGTTAGAA | 0.986
ATTTTCGGCC | 0.981
GCTCCGGGGA | 3.02
ACTGTTTCTT | 1.01
ACGGCTATGG | 1.1
CCATGGGAGC | 0.973
CAAACTTGCT | 1.06
AGTGTATGTC | 0.99
CGATACGGGG | 1.01
ACTGGGTTAG | 1
TGCACATAGC | 1.08
AGCCTACGGC | 1.02
CGATTGGGT | 0.979
AACGAAGTCC | 1.05
TAGGATCGGG | 0.994
GAATGAAATA | 0.987
GTGGATAACG | 1
GCCAGGGAAT | 0.978

Sequence | switch fluorescence ratio
TTTAAGGCCC | 1.25
AAAAGCCGTC | 1
CGTTGTCTAC | 1.02
TTAAGCCTAG | 1.05
TGCCTCGGTA | 0.976
CCAAATGGAC | 1.06
TCAGCCCACT | 1.03
CCAAGGGAAT | 1.08
GATCCTACTG | 1.1
CCTGAATTGC | 1.29
GCCATACGGA | 1.07
ACAGGCAATT | 0.982
AAAGATGATC | 1.03
CTGTACTGTA | 1.21
AGTTGCTTAA | 0.964
ATATACTGAA | 1.22
TAAGCTCGGT | 0.954
GGCGGGCACT | 0.982
GATTCAGCGT | 1
TTTGAAGT | 0.927
GAGAGAGCCA | 0.989
ATTCTTTCGG | 0.973
AGAAGCGACG | 0.952
ACATTTATA | 0.979
AGGCTAGGTA | 1.03
GTGCTCGTGG | 1.02

Sequence | switch fluorescence ratio
TGTGCGTAAG | 1.04
GAGGTTCAT | 1.02
ATCGTCACGA | 0.984
ACAAGTTCT | 1.03
CAAGCCCCTT | 1.01
ATCGTGCA | 1.03
TGCTATCTCA | 1.07
ATCTGCCGCG | 1.05
ATTAGCCTCT | 0.953
CCAAGGAGT | 1.01
CGGCATATTT | 1.04
GGTCTTCTCT | 1.01
GGGCGCCTCC | 1.01
GTCCGTTTTT | 0.984
GGTATTGTTC | 1
TGAATACGAA | 0.996
TACTAACGTA | 1.48
CGCCTATGTA | 1
TCGATTTTTA | 0.947
CGGTCTACAC | 1.03
ACGCTAGGTT | 1.03
CTAAGGAGAT | 0.991
TCATTTTG | 1.01
ACTTTTCAAA | 0.997
CAAAATCCAC | 1.03
CGACAATCCC | 1.37

Sequence | switch fluorescence ratio
CGCTATTAGG | 1.04
AGCTCAGGAG | 1.05
ACATACATTT | 1.25
ACGATTCCAT | 1.02
CTTTAACTGA | 1.02
CTATCACCAT | 1
GTTTGCTTGG | 0.999
ATGCAGCTTT | 1.06
TGATGAAAGT | 0.974
TTGTTTCGCG | 0.943
TACCGTCCGG | 1.01
TCCTTTGTCC | 1.04
TAAAACGGG | 1.02
GATAGGGAGA | 1.03
GAGAATGAGT | 0.998
AATCGGTTAA | 0.995
GATGTTGGTC | 1.01
AGTCGTAGGA | 1.01
GTGTGATGCA | 0.948
GGAGACGGAG | 1.02
TTTCAGTAAG | 1.05
CACAGGCAAA | 1.07
TCGGTACGTG | 0.985
GTATCAATCG | 0.983
CCGGGTTATT | 1.02
GATTAATGG | 1.03

Sequence | switch fluorescence ratio
GGCAACTGTT | 1.09
AATTTCCAAG | 1.01
GTGCTAGTGG | 0.986
AGGTGACTTC | 1.04
TAGGGCTTTC | 1.01
TTCTTAGTCT | 1.05
AACGCTGGAT | 1.04
ATGATTCCGA | 1
CATGCAATTG | 0.963
CCGGGGTTC | 1.21
GGTCATCTGC | 1.09
TACAAGCGCA | 1.06
AGCCCAGAAT | 1.01
GGTGTGCTAC | 1.06
TGAGAGCGGG | 1.02
TCGTCATCTG | 1.01
TGCATAAGTT | 1.01
GTGGTCCTCA | 0.997
AAAATATGTA | 1.05
GGAGAATGGT | 0.997
CTTTTCACG | 0.985
AGCGGGACGC | 0.982
TTTAACGGCG | 1.05
GCGTCGCCGG | 1
AATTAAGGCT | 1.01
CCTAGAGCAT | 2.1

Sequence | switch fluorescence ratio
AAGGAGTCTG | 0.967
GAGGGGCAT | 0.989
TACAGGAATA | 1.05
ACATTAGTTC | 1.03
CGTCAACGAG | 1.02
TCAATGTAGG | 0.981
CGGCTCGCTC | 1.06
ACGAGGTCAC | 1.04
AGAGTTCTCA | 0.983
CTCGGAGTTT | 1.03
AGTCGAGGCT | 1.01
GTGCCAGAAA | 1.02
TCTTGCCCCA | 1.04
GATAGTGTCT | 0.998
ATCGGGAAGA | 1.05
AAATACCGCG | 1.35
ATAGTAAGAG | 0.998
GTTTGCCAGT | 1.03
ATTACTTAA | 1.01
GCACATAGGT | 1.06
TTATCCATGG | 0.959
TGAGTCATCG | 1.01
AGGGCAGCCG | 1.08
TTCTGGAGCG | 1.17
ACCACTGGTG | 1.04
TACTCTGGTA | 1.06

Sequence | switch fluorescence ratio
GGGAACGACA | 1.05
AAGTAGCGCC | 0.985
CGTGGTTAAT | 0.963
ACCAACTTCT | 1.11
CATGGAGCAT | 1.39
GGGTATAAAT | 1.01
TTAACTCTA | 1.01
TTTTGCACCA | 1.04
ACAGGACGGT | 1.1
AAGCTGCCAG | 1.01
CTCACGAGA | 1.15
AGGTATCTA | 0.979
AGTCGTAC | 1.02
CTGGACGTGG | 0.953
TAGCGGAAAG | 0.977
GCCGGCTTTA | 0.968
TCCAGACGGA | 0.973
AGGAACCCGA | 1.03
TGCAAAGGCG | 1.02
